Laboratory results published in ChEMBL document CHEMBL5674866 (J Biol Chem, 2015).
The source made the active and inactive calls. The rule behind the calls is not given here.

Experiments:
[1] = target: Mitogen-activated protein kinase kinase kinase 9 (Homo sapiens, UniProt P80192); assay: Inhibition of human MLK1 by discoverX kinome scan assay
[2] = target: cGMP-dependent protein kinase 1 (Homo sapiens, UniProt Q13976); assay: Inhibition of PRKG1 (unknown origin) by discoverX kinome scan assay
[3] = Inhibition of human ABL1 pQ252H mutant by discoverX kinome scan assay
[4] = target: Serine/threonine-protein kinase N1 (Homo sapiens, UniProt Q16512); assay: Inhibition of human PKN1 by discoverX kinome scan assay
[5] = Inhibition of human FXR by Eurofins-CEREP pharmacology platform analysis
[6] = Inhibition of human CSF1R-autoinhib by discoverX kinome scan assay
[7] = target: Serine/threonine-protein kinase PLK4 (Homo sapiens, UniProt O00444); assay: Inhibition of human PLK4 by discoverX kinome scan assay
MCF7 = assay: Antiproliferative activity against human MCF7 cells measured after 7 day by celltitre-glo luminescent assay; assay type: functional, cell-based; conditions: MCF7, 168 h
[8] = Inhibition of human ABL1 pY253F mutant by discoverX kinome scan assay
[9] = Inhibition of human LYK by discoverX kinome scan assay
UACC-893 = assay: Antiproliferative activity against human UACC-893 cells measured after 7 day by celltitre-glo luminescent assay; assay type: functional, cell-based; conditions: UACC-893, 168 h
[10] = target: Phosphatidylinositol 4,5-bisphosphate 3-kinase catalytic subunit alpha isoform (Homo sapiens, UniProt P42336, I800L); assay: Inhibition of human PIK3CA I800L mutant by discoverX kinome scan assay
[11] = target: Serine/threonine-protein kinase PAK 1 (Homo sapiens, UniProt Q13153); assay: Inhibition of human PAK1 by discoverX kinome scan assay
[12] = target: Dual specificity tyrosine-phosphorylation-regulated kinase 1B (Homo sapiens, UniProt Q9Y463); assay: Inhibition of human DYRK1B by discoverX kinome scan assay
[13] = target: Protein kinase C epsilon type (Homo sapiens, UniProt Q02156); assay: Inhibition of human PRKCE by discoverX kinome scan assay
[14] = target: Cyclin-dependent kinase 17 (Homo sapiens, UniProt Q00537); assay: Inhibition of human PCTK2 by discoverX kinome scan assay
[15] = target: 3-phosphoinositide-dependent protein kinase 1 (Homo sapiens, UniProt O15530); assay: Inhibition of human PDPK1 by discoverX kinome scan assay
KYSE-150 cell line [16] = assay: Effect on cellular post-translational modifications on histone H3 (TKQTAR) - K4 tri-methylated in human KYSE-150 cells assessed as fold change by mass spectrometric analysis; assay type: functional
Outline: (§1)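 Histones acid-extracted from SMYD2-overexpressing KYSE-150 cells treated with vehicle or 5 μM inhibitor. Samples derivatized with propionic anhydride, then trypsin-digested for 6 h at 37 °C. Each modification's relative abundance on a peptide sequence, as a percentage, was quantified from MS and MS/MS spectra and compared with vehicle.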

KYSE-150 cell line [17] = assay: Effect on cellular post-translational modifications on histone H4 (KVLR) - K20 trimethylated in human KYSE-150 cells assessed as fold difference by mass spectrometry relative to vehicle treated control; assay type: functional; outline: as §1
KYSE-520 cell line = assay: Antiproliferative activity against human KYSE520 cells measured after 7 day by celltitre-glo luminescent assay; assay type: functional, cell-based; conditions: KYSE-520, 168 h
KYSE-150 cell line [18] = assay: Effect on cellular post-translational modifications on histone H4 (KVLR) - K20 monomethylated in human KYSE-150 cells assessed as fold change by mass spectrometric analysis; assay type: functional; outline: as §1
KYSE-150 cell line [19] = assay: Effect on cellular post-translational modifications on histone H3 (KSTGGKAPR) - K9 trimethylated, K14 acetylated in human KYSE-150 cells assessed as relative abundance at 5 by mass spectrometric analysis (reference value: 7+/-0.2); assay type: functional; conditions: dose 5 µM; outline: as §1
[20] = target: Phosphatidylinositol 3-kinase C2 domain-containing subunit gamma (Homo sapiens, UniProt O75747); assay: Inhibition of human PIK3C2G by discoverX kinome scan assay
KYSE-70 cell line = assay: Antiproliferative activity against human KYSE-70 cells measured after 7 day by celltitre-glo luminescent assay; assay type: functional, cell-based; conditions: KYSE-70, 168 h
[21] = target: Serine/threonine-protein kinase pim-1 (Homo sapiens, UniProt P11309); assay: Inhibition of human PIM1 by discoverX kinome scan assay
KYSE-150 cell line [22] = assay: Effect on cellular post-translational modifications on histone H3 (KSTGGKAPR) - K9 dimethylated, K14 acetylated in human KYSE-150 cells assessed as relative abundance at 5 by mass spectrometric analysis (reference value: 16.6+/-0.9); assay type: functional; conditions: dose 5 µM
KYSE-150 cell line [23] = assay: Effect on cellular post-translational modifications on histone H4 (KVLR) - K20 trimethylated in human KYSE-150 cells assessed as relative abundance at 5 by mass spectrometric analysis (reference value: 0.8+/-0.1); assay type: functional; outline: as §1
KYSE-150 cell line [24] = assay: Effect on cellular post-translational modifications on histone H3 (GKGGKGLGKGGAKR) - K5 unmethylated, K8 unmethylated, K12 unmethylated, K16 acetylated in human KYSE-150 cells assessed as fold change by mass spectrometric analysis; assay type: functional
[25] = Inhibition of bacterial PKNB by discoverX kinome scan assay; set-up: species or system Bacteria
[26] = target: Serine/threonine-protein kinase NIM1 (Homo sapiens, UniProt Q8IY84); assay: Inhibition of human NIM1 by discoverX kinome scan assay
[27] = target: N-lysine methyltransferase SMYD2 (Homo sapiens) (UniProt Q9NRG4); assay: Inhibition of FLAG-tagged SMYD2 methylation activity in human KYSE-150 cell line assessed as decrease in mono-methyl-Lys370 p53 by sandwich ELISA analysis; assay type: cell-based
Outline: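 KYSE-150 cells stably overexpressing FLAG-SMYD2, 1×10^6 per well, treated the following day with 0–5 μM for 24 h, then lysed. Sandwich electrochemiluminescence ELISA: capture with plate-coated methyl-p53 (Lys370me1) antibody, 0.5 μg lysate bound overnight at 4 °C, then SULFO-TAG total p53 detection antibody for 1 h at room temperature.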

[28] = target: Phosphatidylinositol 4-kinase beta (Homo sapiens, UniProt Q9UBF8); assay: Inhibition of human PIK4CB by discoverX kinome scan assay
[29] = target: Phosphatidylinositol 4,5-bisphosphate 3-kinase catalytic subunit alpha isoform (Homo sapiens, UniProt P42336, E542K); assay: Inhibition of human PIK3CA E542K mutant by discoverX kinome scan assay
[30] = target: Serine/threonine-protein kinase Nek11 (Homo sapiens, UniProt Q8NG66); assay: Inhibition of human NEK11 by discoverX kinome scan assay
KYSE-150 cell line [31] = assay: Effect on cellular post-translational modifications on histone H3 (TKQTAR) - K4 mono-methylated in human KYSE-150 cells assessed as relative abundance at 5 by mass spectrometric analysis (reference value: 10.5+/-0.3); assay type: functional; conditions: dose 5 µM; outline: as §1
[32] = target: cAMP-dependent protein kinase catalytic subunit beta (Homo sapiens, UniProt P22694); assay: Inhibition of human PKAC-beta by discoverX kinome scan assay
[33] = target: Serine/threonine-protein kinase Nek10 (Homo sapiens, UniProt Q6ZWH5); assay: Inhibition of human NEK10 by discoverX kinome scan assay
UniProt Q6ZWH5, sequence (Q6ZWH5 whole entry): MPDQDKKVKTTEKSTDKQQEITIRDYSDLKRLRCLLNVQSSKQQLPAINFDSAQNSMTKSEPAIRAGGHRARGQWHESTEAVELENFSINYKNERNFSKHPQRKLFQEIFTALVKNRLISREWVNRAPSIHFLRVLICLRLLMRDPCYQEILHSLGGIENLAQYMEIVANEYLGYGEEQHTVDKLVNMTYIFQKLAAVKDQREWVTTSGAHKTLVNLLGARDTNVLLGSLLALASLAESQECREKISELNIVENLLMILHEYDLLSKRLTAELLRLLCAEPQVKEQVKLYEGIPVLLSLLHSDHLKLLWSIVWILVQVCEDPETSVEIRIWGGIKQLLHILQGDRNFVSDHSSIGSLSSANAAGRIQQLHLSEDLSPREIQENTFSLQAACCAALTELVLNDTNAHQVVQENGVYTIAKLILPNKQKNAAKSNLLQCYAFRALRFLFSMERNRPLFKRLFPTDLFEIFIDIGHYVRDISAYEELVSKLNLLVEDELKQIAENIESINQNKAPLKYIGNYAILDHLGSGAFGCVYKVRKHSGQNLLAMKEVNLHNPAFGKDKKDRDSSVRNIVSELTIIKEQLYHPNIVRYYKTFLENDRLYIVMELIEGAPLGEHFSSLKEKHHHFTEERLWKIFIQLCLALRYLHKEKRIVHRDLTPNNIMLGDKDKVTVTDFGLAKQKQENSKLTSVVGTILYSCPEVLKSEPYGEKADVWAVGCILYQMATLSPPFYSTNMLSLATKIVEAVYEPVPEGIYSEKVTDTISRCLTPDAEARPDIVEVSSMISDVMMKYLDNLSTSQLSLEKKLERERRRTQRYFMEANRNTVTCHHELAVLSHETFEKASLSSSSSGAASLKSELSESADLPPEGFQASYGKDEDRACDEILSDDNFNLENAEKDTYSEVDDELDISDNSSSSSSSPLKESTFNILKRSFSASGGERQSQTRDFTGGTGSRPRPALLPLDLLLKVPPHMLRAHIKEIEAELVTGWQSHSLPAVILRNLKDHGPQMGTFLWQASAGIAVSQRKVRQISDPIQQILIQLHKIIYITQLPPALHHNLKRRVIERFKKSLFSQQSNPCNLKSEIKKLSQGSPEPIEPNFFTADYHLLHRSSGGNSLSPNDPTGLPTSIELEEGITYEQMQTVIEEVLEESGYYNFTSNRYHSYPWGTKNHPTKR

UniProt Q02156, sequence (Q02156 whole entry): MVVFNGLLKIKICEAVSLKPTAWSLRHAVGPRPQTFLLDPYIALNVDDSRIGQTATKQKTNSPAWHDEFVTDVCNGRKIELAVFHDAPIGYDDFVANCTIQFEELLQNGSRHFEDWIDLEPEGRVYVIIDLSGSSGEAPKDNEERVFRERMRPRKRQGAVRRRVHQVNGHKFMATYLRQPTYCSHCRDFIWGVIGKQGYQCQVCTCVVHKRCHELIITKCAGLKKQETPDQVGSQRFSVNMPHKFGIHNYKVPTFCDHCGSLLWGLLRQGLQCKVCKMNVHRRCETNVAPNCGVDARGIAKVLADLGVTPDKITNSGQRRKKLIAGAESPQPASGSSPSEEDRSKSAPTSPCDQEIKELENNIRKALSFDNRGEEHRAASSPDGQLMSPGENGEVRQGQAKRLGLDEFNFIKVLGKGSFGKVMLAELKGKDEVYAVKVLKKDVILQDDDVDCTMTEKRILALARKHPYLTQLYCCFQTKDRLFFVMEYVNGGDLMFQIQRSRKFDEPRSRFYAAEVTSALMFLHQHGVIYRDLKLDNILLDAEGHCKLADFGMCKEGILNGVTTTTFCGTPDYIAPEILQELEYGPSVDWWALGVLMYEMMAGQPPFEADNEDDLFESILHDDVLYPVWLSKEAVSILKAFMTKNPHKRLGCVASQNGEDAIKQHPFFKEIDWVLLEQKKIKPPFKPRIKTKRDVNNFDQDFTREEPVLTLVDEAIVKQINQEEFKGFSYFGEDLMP
UniProt P80192, sequence (P80192 whole entry): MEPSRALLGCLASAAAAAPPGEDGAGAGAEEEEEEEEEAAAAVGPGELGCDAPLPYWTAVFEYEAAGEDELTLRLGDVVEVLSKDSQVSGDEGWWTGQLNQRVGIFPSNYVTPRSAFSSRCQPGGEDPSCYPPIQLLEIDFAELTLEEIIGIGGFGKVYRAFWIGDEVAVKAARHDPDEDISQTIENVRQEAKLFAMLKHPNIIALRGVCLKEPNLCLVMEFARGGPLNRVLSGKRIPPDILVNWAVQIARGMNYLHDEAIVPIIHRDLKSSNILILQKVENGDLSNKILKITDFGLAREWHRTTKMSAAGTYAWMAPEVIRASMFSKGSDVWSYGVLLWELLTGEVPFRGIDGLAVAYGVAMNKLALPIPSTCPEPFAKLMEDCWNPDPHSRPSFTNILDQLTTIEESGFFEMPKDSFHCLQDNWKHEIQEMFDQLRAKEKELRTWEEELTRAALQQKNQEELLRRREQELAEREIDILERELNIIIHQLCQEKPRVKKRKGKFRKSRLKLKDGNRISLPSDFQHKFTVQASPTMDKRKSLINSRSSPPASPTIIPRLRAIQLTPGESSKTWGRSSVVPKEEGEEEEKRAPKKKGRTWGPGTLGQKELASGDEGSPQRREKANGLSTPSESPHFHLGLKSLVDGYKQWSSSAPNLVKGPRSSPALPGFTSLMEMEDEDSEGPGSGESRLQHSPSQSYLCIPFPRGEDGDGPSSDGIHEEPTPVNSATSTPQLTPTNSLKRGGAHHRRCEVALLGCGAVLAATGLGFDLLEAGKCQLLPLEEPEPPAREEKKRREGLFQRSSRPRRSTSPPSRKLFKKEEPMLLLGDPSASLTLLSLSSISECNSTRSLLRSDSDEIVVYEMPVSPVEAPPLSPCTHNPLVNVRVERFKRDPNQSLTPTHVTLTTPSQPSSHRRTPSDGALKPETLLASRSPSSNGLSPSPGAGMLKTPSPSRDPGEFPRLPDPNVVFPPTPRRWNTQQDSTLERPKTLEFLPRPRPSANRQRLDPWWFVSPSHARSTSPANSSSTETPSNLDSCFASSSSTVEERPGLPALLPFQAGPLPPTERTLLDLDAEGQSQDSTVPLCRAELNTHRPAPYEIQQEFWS
UniProt Q00537, sequence (Q00537 whole entry): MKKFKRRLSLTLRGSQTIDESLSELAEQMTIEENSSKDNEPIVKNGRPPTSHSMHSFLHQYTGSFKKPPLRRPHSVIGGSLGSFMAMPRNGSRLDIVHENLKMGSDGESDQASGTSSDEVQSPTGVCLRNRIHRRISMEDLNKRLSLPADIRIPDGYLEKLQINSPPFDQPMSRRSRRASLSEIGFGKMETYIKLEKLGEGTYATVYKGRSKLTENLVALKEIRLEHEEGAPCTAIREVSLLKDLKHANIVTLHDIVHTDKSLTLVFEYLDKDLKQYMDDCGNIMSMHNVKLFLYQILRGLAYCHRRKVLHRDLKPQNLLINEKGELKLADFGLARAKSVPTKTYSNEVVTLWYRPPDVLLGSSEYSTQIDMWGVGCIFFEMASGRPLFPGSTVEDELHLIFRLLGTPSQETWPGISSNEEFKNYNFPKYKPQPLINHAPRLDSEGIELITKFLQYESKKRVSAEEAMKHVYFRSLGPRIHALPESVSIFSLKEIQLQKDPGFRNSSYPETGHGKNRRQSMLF
UniProt Q8IY84, sequence (Q8IY84 whole entry): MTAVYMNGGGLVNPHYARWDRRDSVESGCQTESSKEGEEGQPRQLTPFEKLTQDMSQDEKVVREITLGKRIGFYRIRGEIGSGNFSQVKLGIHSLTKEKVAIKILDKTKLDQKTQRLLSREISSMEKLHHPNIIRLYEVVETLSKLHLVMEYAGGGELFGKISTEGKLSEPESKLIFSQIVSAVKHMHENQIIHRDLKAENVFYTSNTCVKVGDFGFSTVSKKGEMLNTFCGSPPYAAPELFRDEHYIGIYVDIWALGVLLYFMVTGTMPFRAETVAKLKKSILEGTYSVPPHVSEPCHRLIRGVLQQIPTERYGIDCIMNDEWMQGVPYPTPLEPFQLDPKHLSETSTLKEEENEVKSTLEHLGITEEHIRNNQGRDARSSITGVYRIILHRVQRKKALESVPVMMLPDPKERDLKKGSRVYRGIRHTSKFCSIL
UniProt Q8NG66, sequence (Q8NG66 whole entry): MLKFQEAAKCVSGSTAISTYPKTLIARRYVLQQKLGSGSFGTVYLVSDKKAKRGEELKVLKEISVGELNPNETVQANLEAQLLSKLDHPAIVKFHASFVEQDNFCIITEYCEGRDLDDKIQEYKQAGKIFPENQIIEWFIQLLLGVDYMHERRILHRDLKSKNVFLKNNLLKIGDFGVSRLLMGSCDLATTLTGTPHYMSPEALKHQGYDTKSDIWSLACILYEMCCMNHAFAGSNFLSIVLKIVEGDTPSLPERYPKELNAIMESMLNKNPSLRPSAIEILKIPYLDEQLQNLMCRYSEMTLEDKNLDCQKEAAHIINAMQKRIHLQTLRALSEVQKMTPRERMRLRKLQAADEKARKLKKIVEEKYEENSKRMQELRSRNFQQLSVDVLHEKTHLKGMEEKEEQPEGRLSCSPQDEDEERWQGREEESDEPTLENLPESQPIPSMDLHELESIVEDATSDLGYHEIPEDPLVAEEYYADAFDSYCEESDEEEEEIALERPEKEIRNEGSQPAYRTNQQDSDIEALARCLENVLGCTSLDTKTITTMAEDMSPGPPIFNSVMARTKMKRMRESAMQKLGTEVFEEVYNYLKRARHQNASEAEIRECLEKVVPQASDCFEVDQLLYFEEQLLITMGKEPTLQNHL
UniProt Q9NRG4, sequence (Q9NRG4 whole entry): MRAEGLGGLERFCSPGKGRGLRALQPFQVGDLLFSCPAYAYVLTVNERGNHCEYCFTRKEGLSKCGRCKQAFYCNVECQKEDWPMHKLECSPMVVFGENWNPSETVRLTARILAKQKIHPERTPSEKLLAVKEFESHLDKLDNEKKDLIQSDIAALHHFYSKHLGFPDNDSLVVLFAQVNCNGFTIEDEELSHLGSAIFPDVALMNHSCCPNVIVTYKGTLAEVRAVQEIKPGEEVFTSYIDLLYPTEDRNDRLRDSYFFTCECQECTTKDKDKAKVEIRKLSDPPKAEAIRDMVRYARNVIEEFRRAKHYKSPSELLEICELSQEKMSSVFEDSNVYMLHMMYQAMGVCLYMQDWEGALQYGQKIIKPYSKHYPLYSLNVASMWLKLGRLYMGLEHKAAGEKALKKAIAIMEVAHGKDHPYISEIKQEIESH

Work on Cc1cn(CCN2CCN(c3ccccc3-c3cc(C#N)cc(C(=O)NCCCN4CCCC4)c3)CC2)c2ccccc12 yielded an IC50 [1] greater than 20 µM, an IC50 [2] greater than 20 µM and an IC50 [3] greater than 20 µM. It also gave an IC50 [4] greater than 20 µM, an IC50 [5] greater than 10 µM and an IC50 [6] of 7.5 µM. For the same compound, the IC50 [7] was greater than 20 µM, the IC50 (MCF7) was 0.3 µM and the IC50 [8] was greater than 20 µM. For the same compound, the IC50 [9] was greater than 20 µM, the IC50 (UACC-893) was 0.3 µM and the IC50 [10] was greater than 20 µM. For the same compound, the IC50 [11] was greater than 20 µM, the IC50 [12] was 14.5 µM and the IC50 [13] was greater than 20 µM. The IC50 [14] was greater than 20 µM, the IC50 [15] was greater than 20 µM and the “fold change (FC)” value (KYSE-150 cell line [16]) was 1.3. For the same compound, the “fold change (FC)” value (KYSE-150 cell line [17]) was 0.97, the IC50 (KYSE-520 cell line) was 0.3 µM and the “fold change (FC)” value (KYSE-150 cell line [18]) was 0.88. For the same compound, the Activity (KYSE-150 cell line [19]) was 6.3, the IC50 [20] was greater than 20 µM and the IC50 (KYSE-70 cell line) was 0.3 µM. For the same compound, the IC50 [21] was greater than 20 µM, the Activity (KYSE-150 cell line [22]) was 15.3 and the Activity (KYSE-150 cell line [23]) was 0.8. The “fold change (FC)” value (KYSE-150 cell line [24]) was 1.31, the IC50 [25] was greater than 20 µM and the IC50 [26] was greater than 20 µM. For the same compound, the inhibition [27] was “Active”, the IC50 [28] was greater than 20 µM and the IC50 [29] was greater than 20 µM. It also gave an IC50 [30] greater than 20 µM, an Activity (KYSE-150 cell line [31]) of 13 and an IC50 [32] greater than 20 µM. It also gave an IC50 [33] greater than 20 µM.
